According to PubChem BioAssay AID1030 (National Center for Advancing Translational Sciences (NCATS), 2008):
About 16,000 (7.3%) of roughly 220,000 compounds were called active. The shares of active, inactive and inconclusive entries below differ from those in the screen. Calls follow the shape of the dose curve; as a rule, active = well fitted inhibition curve with a large enough effect (not every such curve was filed as active); inconclusive = small, poorly fitted or top-dose-only effect, or another doubt; inactive = no such curve, though single readings can be large or run the other way. Potencies of inconclusive entries are left out as doubtful fits.

Molecular target: Aldehyde dehydrogenase 1A1 (Homo sapiens) (UniProt P00352)
Sequence of UniProt P00352 (P00352 whole entry, looked up): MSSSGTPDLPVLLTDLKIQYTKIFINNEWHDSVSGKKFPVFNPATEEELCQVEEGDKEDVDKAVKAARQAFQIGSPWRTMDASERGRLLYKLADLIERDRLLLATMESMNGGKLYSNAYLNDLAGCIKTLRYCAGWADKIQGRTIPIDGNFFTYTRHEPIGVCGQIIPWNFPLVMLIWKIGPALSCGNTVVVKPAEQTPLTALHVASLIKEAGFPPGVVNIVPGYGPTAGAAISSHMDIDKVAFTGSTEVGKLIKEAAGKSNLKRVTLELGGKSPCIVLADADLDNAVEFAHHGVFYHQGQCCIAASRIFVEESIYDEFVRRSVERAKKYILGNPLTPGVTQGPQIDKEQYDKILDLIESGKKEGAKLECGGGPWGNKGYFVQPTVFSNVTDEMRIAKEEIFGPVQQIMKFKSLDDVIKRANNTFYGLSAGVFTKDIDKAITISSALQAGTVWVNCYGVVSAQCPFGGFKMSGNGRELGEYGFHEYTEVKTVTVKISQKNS
Assay: qHTS Assay for Inhibitors of Aldehyde Dehydrogenase 1 (ALDH1A1)
Conditions: Purified ALDH1A1, NADH fluorescence, propionaldehyde substrate; series mostly up to 75.3 µM
Potency is read from the fitted curve at half-maximal effect; tags tell the direction and shape of the fitted curve.

| SMILES | Potency |
| --- | --- |
| Cn1nnnc1SCc1ccc(F)cc1 | inconclusive [inhibitor, partial curve] |
| CC(C1CC1)N(Cc1ccccc1)C(=S)Nc1ccccc1Cl (stereo unspecified) | inconclusive [inhibitor, single point] |
| O=C(CSc1ccc2nnc(-c3ccc(F)cc3)n2n1)NCc1ccco1 | inconclusive [inhibitor, single point] |
| CCN1CCCc2cc(CN(CCN3CCOCC3)C(=S)Nc3ccc(OC)c(Cl)c3)ccc21 | active: 17.8 µM |
| CCNC(=S)N1CCCC(C(N)=O)C1 (stereo unspecified) | inactive |
| CCn1cc(C(=O)NCc2cccc(F)c2)c(=O)c2cc(F)c(N3CCN(C(=O)c4ccco4)CC3)cc21 | inconclusive [inhibitor, partial curve] |
| COc1ccc2c(c1)CC(C1(O)C(=O)Nc3ccccc31)C2=O (stereo unspecified) | active: 31.6 µM |
| CC(=O)NS(=O)(=O)c1ccc(NC(=S)NC(=O)CC(C)C)cc1 | inactive |
| O=S(=O)(c1ccc(Cl)s1)N1CCN(C/C=C/c2ccccc2)CC1 | inconclusive [inhibitor, partial curve] |
| COc1ccc(NC(=O)C2CCCN(c3c4c(nc5ncnn35)CCC4)C2)cc1 (stereo unspecified) | inconclusive [inhibitor, full curve] |
| Cc1ccc(NC(=O)C(OC(=O)c2ccc(O)cc2)c2ccccc2)cc1Cl (stereo unspecified) | inconclusive [inhibitor, single point] |
| CC(=O)c1ccc(-n2c(CCC(=O)O)ccc2-c2cccs2)cc1 | active: 3.55 µM |
| Cn1c(=O)c(Oc2ccc(Cl)cc2)c(O)c2ccccc21 | inconclusive [inhibitor, single point] |
| CCCCP(=O)(CCCC)CCP(=O)(c1ccccc1)c1ccccc1 | inactive |
| CCN(CC)c1ccc(-c2c(C#N)c(N)nc(OC)c2C#N)cc1 | inconclusive [inhibitor, partial curve] |
| COc1ccc(C(=O)Cn2nnc(-c3ccccc3NC(=O)C3CCCCC3)n2)cc1 | active: 0.282 µM |
| CCSc1cc(C)nc2c(-c3ccc(Cl)cc3)c(C)nn12 | inconclusive [inhibitor, partial curve] |
| O=C(NC(=S)Nc1ccc2c(c1)OCO2)c1ccccc1 | active: 5.01 µM |
| O=C1C=C(NC2CC2)C2(CCCCC2)O1 | inconclusive [inhibitor, single point] |
| Cc1ccc(-c2noc(C3CCCN(S(=O)(=O)c4ccc(S(=O)(=O)N(C)C)cc4)C3)n2)o1 (stereo unspecified) | active: 25.1 µM |
| CNc1ncnc2c1ncn2[C@H]1C[C@H](OP(=O)(O)O)[C@H](COP(=O)(O)O)O1 | inactive |
